T1: UNK ZnF1-3 (human, UniProt Q9C0B0 31-174)
T1 sequence: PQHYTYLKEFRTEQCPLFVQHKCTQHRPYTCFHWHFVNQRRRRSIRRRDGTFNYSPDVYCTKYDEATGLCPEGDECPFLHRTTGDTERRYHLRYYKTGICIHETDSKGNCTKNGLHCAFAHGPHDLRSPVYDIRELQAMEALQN

B1: chr1:6238667:6238668:+_ENSMUSG00000025907_ENSMUST00000027040|mus_hu|FALSE|FALSE (ssRNA)
RNA: GGGAGUUCUACAGUCCGACGAUCCAUCAUUUCUGGGCUUUGUGGAUCACUUAUAGGAUUAGGAGACGACAAAUUUUCUUCUAUUACAAACUCAUUCACAGCAGACAUAAAAUCUGAUUCAGGACUUUCUGCUAAUGAAUCCAACAACAGAGGAUUGAGCAUCA
B2: chr10:72184726:72184727:+_ENSG00000148730_ENST00000373218|hu_hu|FALSE|FALSE (ssRNA)
RNA: GGGAGUUCUACAGUCCGACGAUCUCAUGUUAAACUACUCCCAAAUUCUUAACCCACAGAAACUGACAGAUAAUGUUUACUAUUUUAACAUACUAAAUUUAGGGUAAUUUUUUACACAGCAAUAGAUAACUAAUACAGGUGGAACAACAGAGGAUUGAGCAUCA
B3: chr6:82862619:82862620:-_ENSMUSG00000000627_ENSMUST00000000641|mus_hu|motif|central (ssRNA)
RNA: GGGAGUUCUACAGUCCGACGAUCUAUCUUUAUACUGCUCGUAUAUCCUAUGACUGUUCCCCUUCUGUUGUUCCCGGAUCAUUAGAAUGUUGUUGAUUUUUAAUGGGAGCCAAGGAAAUGGGGUACAGCCUACACUCCAGCCAGCAACAGAGGAUUGAGCAUCA
B4: chr5:145598128:145598129:+_ENSMUSG00000045482_ENSMUST00000132925|mus_hu|FALSE|FALSE (ssRNA)
RNA: GGGAGUUCUACAGUCCGACGAUCGAGGCGUGUGCACGUGGGACACUACGUGGGGCAGCCGCCGCCACUCGCGGAUGGCCAGGCUGCUGGCCAUCUCCACCAGGCGCUCGAUGAAGCUGAGCUGCUGCUCCUCGGGGUGGCAGACAACAGAGGAUUGAGCAUCA
B5: chr2:60073003:60073004:+_ENSMUSG00000026977_ENSMUST00000102748|mus_mus|FALSE|FALSE (ssRNA)
RNA: GGGAGUUCUACAGUCCGACGAUCAAGGAGGCUUUCUUUGAUUUUCUGAAGUUUUUCUGGGUCUCUUGAAGGUGCACUUUUAGCUUUAUCAUUUUUCCCAUCAGUUGAAUUCCAACCAGAAGGAAUAAUAUCUACAGUAAUCAUCAACAGAGGAUUGAGCAUCA
B6: 91424020_91424254_1995_CDS_ENSG00000140564_ENST00000268171|human|control|control (ssRNA)
RNA: GGGAGUUCUACAGUCCGACGAUCGGACGUGAGGGUCUUGCAGCCACUGCUUUCUGGAGGUACGGGCAGCCCCUCAGGGGCGGUGCCAUAGAGUACGAGGGUGAACUUGGUCAGCGUCCCAUAGUUGUUGGCUUCGCUGGUGUUCAACAGAGGAUUGAGCAUCA
B7: chr2:64863866:64863867:-_ENSG00000179833_ENST00000313349|hu_hu|FALSE|FALSE (ssRNA)
RNA: GGGAGUUCUACAGUCCGACGAUCAAUUAAAACGGUCUUUUGCAAGCUGGGCUCUGUCAGGGGCCUGUGGUUAUAGAGUUUCAUAAGGGAAAUGUUGAAGAUAGUCUGGCGCUGUAAGGUGUAAGACACCUUGGAUGGACCGUCCAACAGAGGAUUGAGCAUCA
B8: chr17:57756778:57756779:+_ENSG00000141367_ENST00000269122|hu_hu|FALSE|FALSE (ssRNA)
RNA: GGGAGUUCUACAGUCCGACGAUCGCUGCCCCACAAUUCUGGAUCCUUUCGACGUACCAGGUAGCGAGAAAGACUUUUGAAGAGGGAAUUCUCAUUGCAAACAUUAAUAAGUUCCAGAUCACAUUGGCCACGUUCAUAAGCAACCAACAGAGGAUUGAGCAUCA
B9: chrX:131338992:131338993:-_ENSMUSG00000033436_ENSMUST00000035559|mus_hu|FALSE|FALSE (ssRNA)
RNA: GGGAGUUCUACAGUCCGACGAUCAUAACAUCACUCUGGAUGAUACAUUAUUCAACACUGGCAGCUGAAAGGAUCCCUUUACUAUAUGAGCAAGUGGAAAAGCAGUAACUUUCAAUUUUCAACGCUUCCACACUGCAAAAUCAUCAACAGAGGAUUGAGCAUCA
B10: chr3:152122376:152122377:+_ENSMUSG00000039068_ENSMUST00000106100|mus_hu|FALSE|FALSE (ssRNA)
RNA: GGGAGUUCUACAGUCCGACGAUCAACAGACAGUAUCCACAUAGUUUAUUUCUCACAGUUCUCCUGACAAAUGAACAUCAUUCAAGAACAUACUGUAUACACAGAUAAGAAGAAACAUACAAAAUGUUUUAAAUGAUGCACAACCAACAGAGGAUUGAGCAUCA
B11: chr8:32276666:32276667:-_ENSMUSG00000031578_ENSMUST00000033983|mus_hu|FALSE|FALSE (ssRNA)
RNA: GGGAGUUCUACAGUCCGACGAUCACGGGGCCAGUAAAUCAGAUUUUCAUCUAUUUGCUCCAGUGCUUUCUCAUAGUUUUUACUAAGCCGGACCCGUUCCCAGAGACGCCGAGGAAAAGCCGCUCGUUCUAUAACCUUCAUAUACAACAGAGGAUUGAGCAUCA
B12: chr4:115894766:115894767:+_ENSMUSG00000028698_ENSMUST00000030464|mus_hu|mus_mus_mus_hu_True|28_58 (ssRNA)
RNA: GGGAGUUCUACAGUCCGACGAUCUUCCACACGGAAAUGUACUUCGGGUUUUCCAACGGCCAGUACCAGUCCGGCCAACUACUAGGAACAGGGUCCUCCCCCUCUCUUCUCUCCUCCACAACAAAAUGCCCCCGAACUUUCAAGCAACAGAGGAUUGAGCAUCA
B13: chr12:67699843:67699844:+_ENSG00000111530_ENST00000544619|hu_mus|FALSE|FALSE (ssRNA)
RNA: GGGAGUUCUACAGUCCGACGAUCAAUAAACUGACCUACUACGGCGGGUCCCUCUUUAGGGCAAGCUCGAGUAAGGGCAGCUACACAUUUGGCAAUGGAAUAAUAAGACUGCUUAUGAGUGAGAGCAGUGCUCUGAGAAUAAACCAACAGAGGAUUGAGCAUCA
B14: chr4:17845017:17845018:+_ENSG00000109805_ENST00000514176|hu_mus|hu_hu_hu_mus_False|1_8 (ssRNA)
RNA: GGGAGUUCUACAGUCCGACGAUCGCUCUCUUAACUUGUAUCUUCAUUAAGGAACUCUGCAAGGUUAAGUUUACUUUUCUGUAGCGCAGCUGUUUUGGCUCGUCUGGGUAAUCUCAUCUUCAUUUCUAUUCUGGUUCUGGAACUCAACAGAGGAUUGAGCAUCA
B15: 160785937_160786057_6708_CDS_ENSMUSG00000057133_ENSMUST00000039782|mouse|control|control (ssRNA)
RNA: GGGAGUUCUACAGUCCGACGAUCGCUGGCACUCACUGGGAAAGGAGAUGUGGCUCCUGGAGACCCCUCUGAGGAGCAGGAGAGGUCUAUAGCUGACUCCCCAUGCCAGCCAUUGAGGACAAUGGGCGGACGCCCAUGGGUGGCCAACAGAGGAUUGAGCAUCA
B16: chr11:74504092:74504093:-_ENSMUSG00000020745_ENSMUST00000021091|mus_hu|FALSE|FALSE (ssRNA)
RNA: GGGAGUUCUACAGUCCGACGAUCCUUCCUUUUUAAAAACUGAAUAUGCCUCUUCAUAGCCAUUUGAACGAAGAUAAUCUGCUAUAGCUCGAUUUAGUUCAUCUCGUUGUCUCUGGGACAGCACCAUCUUGGCUGUAAUGUCAACAACAGAGGAUUGAGCAUCA
B17: chr18:211299:211300:+_ENSG00000101557_ENST00000383589|hu_mus|motif|central (ssRNA)
RNA: GGGAGUUCUACAGUCCGACGAUCAGAUUAUAGAAAUGUUCAACAACAACAACAAAAACAUUCACACCUAAGCAUAAAUAGCGGAAUUGAAGAUUACUGUUCACUUUCUUCUUCCAUUAUUUCAACUCUUCGAGGCCCAUAAAGCAACAGAGGAUUGAGCAUCA
B18: chr10:98281081:98281082:-_ENSG00000077147_ENST00000371142|hu_mus|FALSE|FALSE (ssRNA)
RNA: GGGAGUUCUACAGUCCGACGAUCAUCGCAAUACAGUCCCCCAGUCAGUCUGUACAUCCAAAUGCAUCCAGGAACCUACACCUACGCGACAUUAUUAAUGUUAUAUACAUUUAUUGCCCCCCUUGUUUUGUUUAAUAAUUUCUUCAACAGAGGAUUGAGCAUCA
B19: chr4:115894766:115894767:+_ENSMUSG00000028698_ENSMUST00000030464|mus_hu|mus_mus_mus_hu_True|58_88 (ssRNA)
RNA: GGGAGUUCUACAGUCCGACGAUCUUCCACACGGAAAUGUACUUCGGGUUUCCAACGGGCCAGUACCAGUCCGGCCAACUACUAGGAACAGGGUCCUCCCCCUCUCUCCUACAGAACACAACAAAAUGCCCCCGAACUUUCAAGCAACAGAGGAUUGAGCAUCA
B20: chr11:30352807:30352808:+_ENSG00000152219_ENST00000282032|hu_hu|FALSE|FALSE (ssRNA)
RNA: GGGAGUUCUACAGUCCGACGAUCCUUCCAACCAGGUACAAGCUGUCUUCCAAAUUUAGCACUCAGAAAAGUGGCAUCAUCUAAGUCAAUUACAUGCAAAUUUUUUUUGGCUAAUUUCUUGUGUAUGUUAAAUGGGUCACAACACAACAGAGGAUUGAGCAUCA
B21: chr14:23562722:23562723:-_ENSG00000100813_ENST00000605057|hu_hu|FALSE|FALSE (ssRNA)
RNA: GGGAGUUCUACAGUCCGACGAUCCUGGCUCAUUUCCUCACCAAUCUGGGAAUUUGGCUGGAAUGCAGCAUGGGGUGUUGAGUGUUUCUGUAAAUUUUCUAGCAUUAGAGCCCCUUUGAGCCGCUUGACCAGGGCACUCUUCUGCAACAGAGGAUUGAGCAUCA
B22: chr2:162251599:162251600:+_ENSG00000115233_ENST00000409682|hu_mus|FALSE|FALSE (ssRNA)
RNA: GGGAGUUCUACAGUCCGACGAUCACAGUGUUCACUGUAGUCCUGAAGUGUCAAUCCUUCCAUCCAACUCUUCUUAUGCAAAUUUAACAGCAUCUUCUGUUCCAGUUCAUUUUUCCGGUAAUUAAUAGUGAUGGAGUAAUAAUGCAACAGAGGAUUGAGCAUCA

The list shows a part of the results.

The target of this experiment is T1, UNK ZnF1-3. The experiment is described as follows: nsRBNS (natural sequence RNA bind-n-seq); RBNS binding buffer (assumed for nsRBNS): 25 mM Tris pH 7.5, 150 mM KCl, 3 mM MgCl2, 0.01% Triton X-100, 500 ug/ml BSA, 20 U/ml SUPERase-In, 4 C; UNK is unkempt and MSI1 is Musashi-1; names of the RNAs are library labels; protein concentration not given here; high values mean tight binding.
Molecule B1 came in with a binding signal of 1.37 enrichment R.
In the case of B2 it was 0.878 enrichment R.
The figure for B3 is 0.624 enrichment R; for B4 it is 0.701 enrichment R.
In the case of B5 it was 0.862 enrichment R; in that of B6, 1.01 enrichment R; in that of B7, 0.806 enrichment R.
In turn, B8 gave a binding signal of 1.66 enrichment R.
The figure for B9 is 1.33 enrichment R.
Molecule B10 came in with a binding signal of 0.71 enrichment R.
In the case of B11 it was 1.04 enrichment R.
In the case of B12 it was 1.24 enrichment R.
B13 had a binding signal of 1.15 enrichment R.
As to B14, the binding signal is 0.36 enrichment R.
In the case of B15 it was 0.765 enrichment R; in that of B16, 0.79 enrichment R; in that of B17, 0.543 enrichment R.
In turn, B18 gave a binding signal of 1.24 enrichment R.
The figure for B19 is 1.2 enrichment R; for B20 it is 1.94 enrichment R; for B21 it is 1.03 enrichment R.
In the case of B22 it was 1.1 enrichment R.

The values are drawn from PMC12136788.
